Source: the RNAGym collection of RNA variant scans (doi:10.1073/pnas.2313332121)
Variants at the floor of the assay are shown more often than the library holds them.

B1: TPR 5TU (parent)
chain: GGAUCUUCUCGAUCUAACAAAAAAGACAAAUCUGCCACAAAGCUUGAGAGCAUCUUCGGAUGCAGAGGCGGCAGCCUUCGGUGGCGCGAUAGCGCCAACGUUCUCAACUAUGACACGCAAAACGCGUGCUCCGUUGAAUGGAGUUUAUCAUG

Variants of: B1
Test: polymerase ribozyme fitness, log enrichment relative to wild type (log ratio); higher = more active; in vitro selection for triplet polymerase activity
In short: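 Mutant libraries of both subunits of a heterodimeric triplet polymerase ribozyme were PCR-built, transcribed, and selected once in triplicate, with frozen incubation at −7 °C and capture of gel-excised extended constructs on streptavidin beads before RT-PCR. Illumina sequencing of input and output libraries was filtered to genotypes with ≥10 input reads and ≥1 read per output. Fitness is the logarithm of genotype enrichment over wild-type enrichment, using inverse-variance-weighted replicate averages. The logarithm is base 2.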

| Variant | polymerase ribozyme fitness (log ratio) |
| --- | --- |
| C38A C76A A97G U134G | -3.3 |
| A37C G42U G80C C85U | ≤ -4.2 |
| A37C U55A G133C U144A | -2.6 |
| A37C C75G G80A C149G | ≤ -4.2 |
| C36U G48C C95A A98G A119C A150C | ≤ -4.2 |
| A37G U53C C79G C96U A107C G133A | ≤ -4.2 |
| C36U C79G C93A A107G | ≤ -4.2 |
| C38A C51U C93G | ≤ -4.2 |
| A37G C51U | -2.54 |
| A37C U61A G80C A107C U146C | ≤ -4.2 |
| A37U A49C U78A C79G | ≤ -4.2 |
| C38A U90A G92A C103G G117U A138G | ≤ -4.2 |
| A37C U53A A91C | ≤ -4.2 |
| A37G C51A A97U | ≤ -4.2 |
| A37U U61A C85U U134A | -3.78 |
| A37U A40C G70A C76G C85U | ≤ -4.2 |
| A37G C93A A142G | ≤ -4.2 |
| A37U G42C G50C C57A A73G C132G G141C | ≤ -4.2 |
| C36U C87A A91U C99A | ≤ -4.2 |
| A37G C69U U77C U144G C149A | ≤ -4.2 |
| A37G U45G C54A A91G C96U G141U | ≤ -4.2 |

| Variant | polymerase ribozyme fitness (log ratio) |
| --- | --- |
| C38A C95G C99U A138G | ≤ -4.2 |
| A37C G42C G59C A73U G74C G88A A137C | ≤ -4.2 |
| A37C U45A A106G A147G | ≤ -4.2 |
| A37G A60G G71A C79G G81U C95G C125A G141C U145A U148G | ≤ -4.2 |
| A37C A40C G86C C103G G126A | ≤ -4.2 |
| A37C U55A | 0.0873 |
| A37C C103G | -3.6 |
| C38A G71A C85G G92U G143A | ≤ -4.2 |
| C38A A49U U61A C63A G65C G74C C75A G92A C99U A137U | ≤ -4.2 |
| C36U U53G G83C C123G | ≤ -4.2 |
| A37G C57U A121C G140C | ≤ -4.2 |
| C36U C87A G117U | ≤ -4.2 |
| A37C A40C G58U G94A A97U G143C | ≤ -4.2 |
| A37U G42C | -3.9 |
| C36U G48C U102C U148A | ≤ -4.2 |
| A37G G59A C118G A142C | ≤ -4.2 |
| C38A C87U A107U | -4.17 |
| C38A A60U G84A U134C | -1.6 |
| A37U G86U | -3.44 |
| C38A A47U U53A G86U C99G U102G U104C G124U | ≤ -4.2 |
| A37G A73U G94A A97C G124A | ≤ -4.2 |

| Variant | polymerase ribozyme fitness (log ratio) |
| --- | --- |
| A37U G84A C87U G94A A110U A113C A115C | ≤ -4.2 |
| A37C G84U C95G C114A C118G U139G G143C | ≤ -4.2 |
| A37U A89C C96U C103G U111A U148C | ≤ -4.2 |
| A37C G58A G68U C99U A106C A142G A147C | ≤ -4.2 |
| C38G A40U U55A G92A U127C | ≤ -4.2 |
| A37G G124A | -2.19 |
| C36U U44A G58A C85G G117A C118U A120C C149G | ≤ -4.2 |
| A37C C105U | -0.652 |
| A37U G42A G67A C93A A122U | ≤ -4.2 |
| A37U C125G U139C | ≤ -4.2 |
| A37G C85A U145C U151G | ≤ -4.2 |
| A37G A41G C79A G92U C95U C123U | ≤ -4.2 |
| C38A G83A | -0.746 |
| A37C A64C C87G C95A | ≤ -4.2 |
| C38A A47C C96A | -1.63 |
| A37C A97G U151A | ≤ -4.2 |
| C38A A52C C54U C96U C125U G140A | ≤ -4.2 |
| C36U C93G G94C A120C A142C U148A | ≤ -4.2 |
| C38A U55A U135A U146C | -1.06 |
| A37C A52G | -0.00493 |
| A37C C63G C99A U111C C114U A119U | ≤ -4.2 |

| Variant | polymerase ribozyme fitness (log ratio) |
| --- | --- |
| A37C C87U G100C | ≤ -4.2 |
| A37C U53G U56G C118A U135A G141A | ≤ -4.2 |
| A37G U55G G59A A73G G88A A150G | ≤ -4.2 |
| A37C G42C U82G C85U A115C C123G A150C | ≤ -4.2 |
| A37G G71U U78A C95U C99U G141U | ≤ -4.2 |
| C38A U56A A137G | -2.08 |
| A37C A40G C57U A73C C93U | ≤ -4.2 |
| C38A C76G C93A U148C | ≤ -4.2 |
| C38A A66G G70A | ≤ -4.2 |
| C38A C93A G136A | -1.47 |
| C38A C87U A98G A106C C125A U135A C149A | ≤ -4.2 |
| A37G U45C C54G A60G U90C C95A G117A U146C U148A | ≤ -4.2 |
| A37C C76U C87G A122U U139C | ≤ -4.2 |
| A37U A89U U146A | -1.62 |
| C38A C69U G83A A91G U109G | ≤ -4.2 |
| A37C C123U C125A A142U U148A | ≤ -4.2 |
| A37C A49G U90C A91G G124A U144A | ≤ -4.2 |
| A37C G46A G83A A142U | ≤ -4.2 |
| A37G G50C G74U C105G A122U | ≤ -4.2 |
| C38A C76U A110G A113G G152A | ≤ -4.2 |
